# From the supplement of paper PMC8728848
# The other results are listed elsewhere or left out.
# Tests used:
# Assay in all cases: glycan array binding signal (z-score within array); higher = stronger binding
# Details in all cases: glycan notation: IUPAC condensed, linker removed
# [1] = target: Fuc(a1-2)Gal(b1-4)GlcNAc(b1-3)Gal(b1-4)GlcNAc(b1-2)Man(a1-3)[Fuc(a1-2)Gal(b1-4)GlcNAc(b1-3)Gal(b1-4)GlcNAc(b1-2)Man(a1-6)]Man(b1-4)GlcNAc(b1-4)GlcNAc
# In short: (§1)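 The binding signal is a Z-score computed within each array. Data were drawn from 3228 arrays in the Consortium for Functional Glycomics database, restricted to those with a known protein sequence. Scores were averaged over arrays of the same protein sequence at different concentrations or buffers, and over linkers, and negative values can be taken as non-binding.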
# [2] = target: Fuc(a1-2)Gal(b1-4)GlcNAc(b1-3)Gal(b1-4)GlcNAc(b1-3)Gal(b1-4)GlcNAc
# In short: as §1
# [3] = target: Fuc(a1-2)Gal(b1-4)GlcNAc(b1-3)GalNAc
# In short: as §1
# [4] = target: Fuc(a1-2)Gal(b1-4)GlcNAc(b1-3)[Fuc(a1-2)Gal(b1-4)GlcNAc(b1-6)]GalNAc
# In short: as §1
# [5] = target: Fuc(a1-2)Gal(b1-4)GlcNAc(b1-3)[Fuc(a1-3)[Gal(b1-4)]GlcNAc(b1-6)]Gal(b1-4)Glc
# In short: as §1
# [6] = target: Fuc(a1-2)Gal(b1-4)GlcNAc(b1-6)GalNAc
# In short: as §1
# [7] = target: Fuc(a1-2)Gal(b1-4)GlcNAc6S
# In short: as §1
# [8] = target: Fuc(a1-2)Gal(b1-4)[Fuc(a1-3)]GlcNAc
# In short: as §1
# [9] = target: Fuc(a1-2)Gal(b1-4)[Fuc(a1-3)]GlcNAc(b1-2)Man(a1-3)[Fuc(a1-2)Gal(b1-4)[Fuc(a1-3)]GlcNAc(b1-2)Man(a1-6)]Man(b1-4)GlcNAc(b1-4)[Fuc(a1-6)]GlcNAc
# In short: as §1
# [10] = target: Fuc(a1-2)Gal(b1-4)[Fuc(a1-3)]GlcNAc(b1-2)[Fuc(a1-2)Gal(b1-4)[Fuc(a1-3)]GlcNAc(b1-4)]Man(a1-3)[Fuc(a1-2)Gal(b1-4)[Fuc(a1-3)]GlcNAc(b1-2)Man(a1-6)]Man(b1-4)GlcNAc(b1-4)GlcNAc
# In short: as §1
# [11] = target: Fuc(a1-2)Gal(b1-4)[Fuc(a1-3)]GlcNAc(b1-3)Gal(b1-4)[Fuc(a1-3)]GlcNAc
# In short: as §1
# [12] = target: Fuc(a1-2)Gal(b1-4)[Fuc(a1-3)]GlcNAc(b1-3)Gal(b1-4)[Fuc(a1-3)]GlcNAc(b1-3)Gal(b1-4)[Fuc(a1-3)]GlcNAc
# In short: as §1
# [13] = target: Fuc(a1-2)Gal(b1-4)[Fuc(a1-3)]GlcNAc(b1-3)GalNAc
# In short: as §1
# [14] = target: Fuc(a1-2)Gal(b1-4)[Fuc(a1-3)]GlcNAc(b1-3)[Neu5Ac(a2-6)Gal(b1-4)GlcNAc(b1-6)]Gal(b1-4)Glc
# In short: as §1
# [15] = target: Fuc(a1-2)Gal3S(b1-4)GlcNAc
# In short: as §1
# [16] = target: Fuc(a1-2)Gal6S(b1-3)GlcNAc
# In short: as §1
# [17] = target: Fuc(a1-2)Gal6S(b1-3)GlcNAc6S
# In short: as §1
# [18] = target: Fuc(a1-2)Gal6S(b1-4)Glc
# In short: as §1
# [19] = target: Fuc(a1-2)Gal6S(b1-4)Glc6S
# In short: as §1
# [20] = target: Fuc(a1-2)[Gal(a1-3)]Gal
# In short: as §1
# [21] = target: Fuc(a1-2)[Gal(a1-3)]Gal(b1-3)GalNAc
# In short: as §1
# [22] = target: Fuc(a1-2)[Gal(a1-3)]Gal(b1-3)GalNAc(b1-3)Gal(a1-4)Gal(b1-4)Glc
# In short: as §1
binder,measurement,setting,value
"Cp ZmpB (Clostridium perfringens), Q0TR08 (protein) MNKRKIAAIILATMITNLSATTIDVLAQELNTKNNSKVEVSHDDESHQARVSKFDLYNSDKLDAYNQEFQVSRSNIKSINNNGGKYNSSTIDKAIDGNLETHWETGKPNDANFTNEVVVTFNEITNIDRIVYSARRDSARGKGFAKEFEIYASLKDEGDDFNLVSSGEYTESTRDLVEIKFNPTDFKRLKFKFKKADQNWASAAEFMFYKEDKLNEKFNGLFTDSSMNKVSEEFNTLEKLNAFENELKDHPIYDLYKEGLNNARAILTETSENPTKATLGQITYNLNDDYNNQYRMPYKNIKAIKNNGRHYAAQNIEKAIDNDVNTYWETGTLNSSSFNNEVEVEFNDLVTLDRIVYGSRQSDLKGFAEEVYIYASRTSKGDTYKLVATGAHEATKGLVEAKFEPTEFKRVKFKFKKSKQNSATLNELMFYKPDEVYSSIPKLFTDGTMSELSEEFNSLEKINAFKEKAKNHPLYNDFNETIELAESLISNPRKEDVLELEMRGDSISEAKKRKVWNFQDWQITGLSARAGDKITVYVDVAEGDPTPTLLYKQSLTQHGGATSFQLKPGKNEITIPEINYESNGIPKDVIQGGDLFFTNYKSDSQKRAPKVRIEGASKYPVFILGKSDENEVMKELEAYVEKIKAEPKTTPNIFAVSSNKSLEFVQATYALDWYKKNNKTPKYTAEQWDQYIADAMGFWGFDNSKDVNSDFNFRIMPMVKNLSGGAFMNAGNGVIGIRPGNQDAILAANKGWGVAHELGHNFDTGGRTIVEVTNNMMPLFFESKYKTKTRITDQNIWENNTYPKVGLDDYSNNELYNKADSTHLAQLAPLWQLYLYDNTFYGKFERQFRERDFGNKNREDIYKSWVVAASDAMELDLTEFFARHGIRVDDKVKEDLAKYPKPDKKIYYLNDLAMNYKGDGFTENAKVSVSTSGSNGNIKLSFSVDDENKDNILGYEIRRDGKYVGFTSNDSFVDTKSNLDEDGVYVVTPYDRKLNTLNPIEVNALQPTLSVNPVITLALGEEFNEEEYIVAKDIKGNSLSESVKVKSSNVNTSKVGEYEVLYSLEDSKGNEYTKTSKVNVVSRKEYMSDLTPKQSSNGWGTVRKDKSISGGVIGLTRDGDFVDYNKGLGLHSNAEYVYDLEGKDYDYFESYVGVDKAMSSRPASSVIFKVLVDGEEKFNSGVMRSTTPQKYVKVDVKNAKELKLIVNDAGDGDSSDHASFGDAKLATLSSKPIIKGENLAYSMDEKVDLMKGITATDIEDGNITSKVQIKSSDFVEGKSGIFTVVYSVTDSDGLTSECSRTIAVTDKETQLSDLNWKSATIGSGSVRKDRAVSGNQIRLLNEDNSVETFAKGIGTHSYSEIVYNSEGYDIFDTWVGIDRHVADKKVSSVKFKVYVDGELKAETDVMRIDTPKKRLVVDVRNSKEIKLVVDVADNGNNWDHADWADAKFRNLAEYDASELNKAIEEAKKLDLNNYTEESSEALKNAISKGEEALLSKDKETINSALEELNKEMNSLVKVDLNAVINIPDKYLLKSIQNQLNKTGDITLGDMYSLTTLTLSGVEDLTGLENAKNLETLNMDYNEVKDLRPLSKLKKLNTLNAQEQFIAAGELKPSNGKVIGDSKVYNREGKNVAKTIRVVDKNGNTILEQDAKDEFTINTKDLSSGLYGVHVLFEDEGFSGVMFYLFNV",glycan array binding signal (z-score),[1],-0.183
same,glycan array binding signal (z-score),[2],-0.016
same,glycan array binding signal (z-score),[3],0.357
same,glycan array binding signal (z-score),[4],-0.356
same,glycan array binding signal (z-score),[5],-0.084
same,glycan array binding signal (z-score),[6],-0.302
same,glycan array binding signal (z-score),[7],-0.348
same,glycan array binding signal (z-score),[8],-0.118
same,glycan array binding signal (z-score),[9],-0.251
same,glycan array binding signal (z-score),[10],0.471
same,glycan array binding signal (z-score),[11],0.231
same,glycan array binding signal (z-score),[12],-0.268
same,glycan array binding signal (z-score),[13],-0.344
same,glycan array binding signal (z-score),[14],-0.162
same,glycan array binding signal (z-score),[15],0.091
same,glycan array binding signal (z-score),[16],-0.122
same,glycan array binding signal (z-score),[17],-0.142
same,glycan array binding signal (z-score),[18],0.304
same,glycan array binding signal (z-score),[19],-0.313
same,glycan array binding signal (z-score),[20],-0.103
same,glycan array binding signal (z-score),[21],-0.276
same,glycan array binding signal (z-score),[22],-0.149
